# According to publication PMC4336329 (PLoS ONE, 2015):
# The whole screen tested about 310,000 compounds, of which about 14,000 (4.5%) showed an effect of 50% or more. The effect is printed as a negative number. The list shows a part of the results.
# Target: human ether-à-go-go-related gene (hERG) potassium channel (human, UniProt Q12809)
# Experiment: primary screen, population patch clamp on CHO cells stably expressing hERG
# 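Further: peak tail current of the secondary pulse compared with the same well before compound.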
# Chain of human ether-à-go-go-related gene (hERG) potassium channel (Q12809 whole entry, looked up): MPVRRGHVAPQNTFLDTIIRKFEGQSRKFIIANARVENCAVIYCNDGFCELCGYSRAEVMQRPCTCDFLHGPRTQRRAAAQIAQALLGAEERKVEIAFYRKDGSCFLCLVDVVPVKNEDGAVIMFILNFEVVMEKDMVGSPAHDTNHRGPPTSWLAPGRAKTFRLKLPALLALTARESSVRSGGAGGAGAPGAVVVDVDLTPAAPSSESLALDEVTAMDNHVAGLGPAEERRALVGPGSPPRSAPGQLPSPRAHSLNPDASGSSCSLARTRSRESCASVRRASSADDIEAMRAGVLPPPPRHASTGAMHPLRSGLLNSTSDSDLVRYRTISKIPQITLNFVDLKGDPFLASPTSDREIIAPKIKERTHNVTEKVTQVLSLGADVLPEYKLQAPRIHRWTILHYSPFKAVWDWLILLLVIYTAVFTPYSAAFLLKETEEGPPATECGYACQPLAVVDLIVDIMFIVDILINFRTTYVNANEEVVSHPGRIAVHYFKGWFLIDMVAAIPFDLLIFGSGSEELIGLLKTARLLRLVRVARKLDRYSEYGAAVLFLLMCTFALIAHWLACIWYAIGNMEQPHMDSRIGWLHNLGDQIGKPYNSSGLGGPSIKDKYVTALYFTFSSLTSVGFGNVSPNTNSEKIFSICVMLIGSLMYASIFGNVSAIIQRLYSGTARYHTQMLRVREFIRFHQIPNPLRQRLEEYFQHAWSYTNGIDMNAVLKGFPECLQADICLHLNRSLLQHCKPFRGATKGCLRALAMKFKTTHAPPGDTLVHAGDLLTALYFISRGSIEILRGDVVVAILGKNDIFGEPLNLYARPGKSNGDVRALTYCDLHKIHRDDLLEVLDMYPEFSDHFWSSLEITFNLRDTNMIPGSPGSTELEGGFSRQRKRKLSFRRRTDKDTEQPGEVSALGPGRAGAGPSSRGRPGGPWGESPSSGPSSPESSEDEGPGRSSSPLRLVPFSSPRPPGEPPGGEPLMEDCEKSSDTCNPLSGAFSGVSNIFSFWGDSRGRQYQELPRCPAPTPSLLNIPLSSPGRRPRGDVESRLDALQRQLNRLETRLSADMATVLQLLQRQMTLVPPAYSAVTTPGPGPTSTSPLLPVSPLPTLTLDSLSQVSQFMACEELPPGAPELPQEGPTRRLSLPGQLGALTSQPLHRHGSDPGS
row,SMILES,"hERG current change (%, negative = inhibition) at 10uM [%]"
1,Cc1ccc(-n2cc3c(-c4cccc(Br)c4)nnc(C)c3n2)cc1,-33.7
2,CCSc1ncnc2c1oc1ccccc12,19.4
3,CCNc1nc(Oc2ccc(F)cc2)cc(C(F)(F)F)n1,6.58
4,O=C(c1ccsc1)N1CCN(C(=O)c2cccs2)CC1,-24.1
5,CCOC(=O)N1CCN(S(=O)(=O)c2ccc(Br)cc2)CC1,0.125
6,Cc1ccc(NC(=O)CCN2C(=O)CSC2=O)c(C)c1,29.4
7,CCn1cc(C(=O)N2CCc3ccccc3C2)c(=O)c2cc(S(=O)(=O)N3CCCCC3)ccc21,-40.7
8,COc1ccc(NS(=O)(=O)c2cccc3cccnc23)cc1,12.5
9,CCN(CC)C(=O)CSc1ncnc2c1cnn2Cc1ccccc1,-19.9
10,CCCn1ncc([C@@H]2C[C@H]3CN(Cc4cccc(Cl)c4)C(=O)[C@]34CCCN24)c1C,-43.6
11,CC(=O)c1c(O)n(C2CCCCCC2)c(=O)[nH]c1=O,17.5
12,Cc1noc(C)c1CSCC(=O)N(C)CC(=O)Nc1ccc(F)c(F)c1F,1.07
13,COc1cccc(CN2C(=NC(=O)CCC3CCCC3)SC3CS(=O)(=O)CC32)c1 (stereo not shown),7.4
14,COc1ccc2cc3cc(C(=O)NCCN4CCN(Cc5ccccc5)CC4)oc3nc2c1,-71.8
15,Oc1ccc(/C=N/NC(=S)NC2CC3CCC2C3)cc1 (stereo not shown),14.9
16,CC(C)(C)[C@@H]1C=C(C(=O)N2CCN(Cc3ccccc3)CC2)O[C@H](OCCCCO)C1,2.51
17,COc1ccccc1OCC(=O)N1CC2(C)CC1CC(C)(C)C2 (stereo not shown),-5.26
18,CCc1nc2ccc(C(=O)NCCc3ccccc3OC)cc2nc1CC,-39.3
19,CN1CCN(/C=C2\SC(=S)NC2=O)CC1,11.6
20,O=C(N/N=C\c1ccccc1)c1cccc(C(=O)N/N=C\c2ccccc2)n1,4.57

row,SMILES,"hERG current change (%, negative = inhibition) at 10uM [%]"
1,COc1ccc(CNc2ccc3c(c2)nc(C)n3C)cc1,-31.9
2,CCOC(=O)c1ccc(NC(=O)CSc2ccc(-c3ccccn3)nn2)cc1,2.83
3,CCOc1ccc(N(CC(=O)NCc2ccccc2)S(=O)(=O)c2c(C)noc2C)cc1,-5.02
4,Cc1nccn1CCC(=O)O.Cl,0.257
5,CC(O)[C@H]1CNC(=O)C(=O)N1CCCCC1CCCCC1 (stereo partly shown),15.5
6,Cl.NC1=NC(c2cccc(Cl)c2)N(CCc2ccc(F)cc2)C(N)=N1 (stereo not shown),15.6
7,CCOC(=O)N1CCN(CC(=O)Nc2nc3ccccc3s2)CC1,-35.5
8,CCOC(=O)C1C(=O)OC(C)(C)C1C(C)C(=O)c1ccc(C)cc1 (stereo not shown),-0.432
9,NS(=O)(=O)c1ccc(CCNC(=O)[C@@H]2CCCN2S(=O)(=O)c2ccccc2F)cc1,-2.88
10,C=CCNC(=O)COC(=O)c1cc(S(=O)(=O)N2CCCCC2)ccc1Cl,-12.4
11,CCCCCCCCCCCCN1[C@@H](CC(=O)OC)c2cc(F)ccc2S1(=O)=O,10.9
12,CN(CCOc1ccccc1)CCOc1ccccc1,-26.3
13,CC(C)Oc1ccc(NC(=O)Oc2ccccc2)cc1,-7.54
14,Cc1ccc(Sc2ccc(/C=N/O)cc2[N+](=O)[O-])cc1,9.89
15,COc1ccccc1NCC(=O)N/N=C(\C)c1ccc(Br)s1,-0.262
16,Cc1cccnc1NC(=S)NC(=O)/C=C/c1ccccc1,-5.1
17,Cn1c(CN2CCCCC2)nc2cc([N+](=O)[O-])ccc21,-0.791
18,CCCS(=O)(=O)n1nc(-c2ccccc2)cc1N,0.509
19,CCOc1ccc(C(=O)NC2CCN(CC(=O)NCc3ccccc3)CC2)cc1,-29.3
20,CCC(C)NC(=S)NNC(=O)c1ccc(C(C)(C)C)cc1 (stereo not shown),19.2

row,SMILES,"hERG current change (%, negative = inhibition) at 10uM [%]"
1,O=C(NC1CCCC1)C(c1ccncc1)N(Cc1ccccc1)C(=O)c1ccc(-c2ccccc2)[nH]1 (stereo not shown),-4.27
2,COc1ccccc1-c1noc(CCC(=O)Nc2cccc(C)c2)n1,-4.2
3,O=C(COC(=O)Cn1cnc2ccccc2c1=O)NCCC1=CCCCC1,-16.9
4,Cc1cc(=O)oc2cc(NC(=O)CCC(=O)O)ccc12,3.98
5,O=C(CCN1CCN(c2ccccc2)CC1)Nc1cccc(Br)c1,-61.4
6,Fc1cnc(Cl)nc1N1CCN(c2ccccc2)CC1,-17.4
7,COc1ccc(-n2c3c(cc(C(=O)N4CCC(C)CC4)c2=O)C(=O)CC(C)(C)C3)cc1,-2.69
8,COc1cccc(-c2nn(C)c3sc(C(=O)N4CCN(c5ccccn5)CC4)cc23)c1,-5.96
9,O=C1NC(=O)C(=Cc2cc(Cl)ccc2OCc2ccc(C(=O)O)cc2)C(=O)N1,6.01
10,CC(=O)OC1N=C(c2ccccc2Cl)c2cc(Br)ccc2N(C)C1=O (stereo not shown),-12.4
11,CCc1n[nH]c(=S)n1/N=C/c1cc(OC)cc([N+](=O)[O-])c1O,1.77
12,O=C(c1ccc(Oc2ccccc2)cc1)c1nc2c(n1O)CCCC2,10.6
13,C/C(=N\NC(=S)NCc1ccccc1)c1cccs1,-26.8
14,CNC(=O)N(C1=NCC(C)(C)S1)c1ccc(F)c(Cl)c1,16.2
15,CC(C)Nc1nnc(SC(C)C(=O)Nc2ccc(Cl)cn2)s1 (stereo not shown),-1.61
16,CCOc1ccc(N2C(=O)C3CC(C)=C(C)CC3C2=O)c([N+](=O)[O-])c1 (stereo not shown),-24.8
17,C/C(=N/Nc1ccc(F)cc1)c1ccc(Cl)s1,8.69
18,COc1ccc(OC)c(/C=C/C(=O)N(C)CC(=O)Nc2cc(C)ccc2C)c1,-15.1
